Binding signal data for 31 molecules are collected here from PMC9911399, “Two distinct binding modes provide the RNA-binding protein RbFox with extraordinary sequence specificity”.

The chains are these.
T1: RBFOX1 RRM RbFoxmut (Fox-RRM*) (Homo sapiens, UniProt Q9NWB1 109-208, R118D;E147R;N151S;E152T)
T1 sequence: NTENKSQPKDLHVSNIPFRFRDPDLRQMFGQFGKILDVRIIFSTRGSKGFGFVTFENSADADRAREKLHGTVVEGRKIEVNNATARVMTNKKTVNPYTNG

B1: CCAUCCC (DNA:RNA)
RNA: GGGAGACCGGAAUUCAGAUUGUCCCCAUCCCUUAAAUCCCGUCGUAGCCACCA
DNA 1: CAATCTGAATTCCGGTCTCCC
DNA 2: TGGTGGCTACGACGGGATT
B2: AUUGGCU (DNA:RNA)
RNA: B1 RNA with C25A, C26U, A27U, U28G, C29G, C31U
DNA 1: CAATCTGAATTCCGGTCTCCC
DNA 2: TGGTGGCTACGACGGGATT
B3: GGGCAUA (DNA:RNA)
RNA: GGGAGACCGGAAUUCAGAUUGUCCGGGCAUAUUAAAUCCCGUCGUAGCCACCA
DNA 1: CAATCTGAATTCCGGTCTCCC
DNA 2: TGGTGGCTACGACGGGATT
B4: AUCCUCG (DNA:RNA)
RNA: B1 RNA with C25A, C26U, A27C, U28C, C29U, C31G
DNA 1: CAATCTGAATTCCGGTCTCCC
DNA 2: TGGTGGCTACGACGGGATT
B5: UUACCCA (DNA:RNA)
RNA: B1 RNA with C25U, C26U, U28C, C31A
DNA 1: CAATCTGAATTCCGGTCTCCC
DNA 2: TGGTGGCTACGACGGGATT
B6: GGCCGAU (DNA:RNA)
RNA: B3 RNA with G27C, A29G, U30A, A31U
DNA 1: CAATCTGAATTCCGGTCTCCC
DNA 2: TGGTGGCTACGACGGGATT
B7: AAAUGGC (DNA:RNA)
RNA: B1 RNA with C25A, C26A, C29G, C30G
DNA 1: CAATCTGAATTCCGGTCTCCC
DNA 2: TGGTGGCTACGACGGGATT
B8: GUUCUAU (DNA:RNA)
RNA: B3 RNA with G26U, G27U, A29U, U30A, A31U
DNA 1: CAATCTGAATTCCGGTCTCCC
DNA 2: TGGTGGCTACGACGGGATT
B9: GCGUGAA (DNA:RNA)
RNA: B3 RNA with G26C, C28U, A29G, U30A
DNA 1: CAATCTGAATTCCGGTCTCCC
DNA 2: TGGTGGCTACGACGGGATT
B10: GCGGCGG (DNA:RNA)
RNA: B1 RNA with C25G, A27G, U28G, C30G, C31G
DNA 1: CAATCTGAATTCCGGTCTCCC
DNA 2: TGGTGGCTACGACGGGATT
B11: AGGGCGU (DNA:RNA)
RNA: B3 RNA with G25A, C28G, A29C, U30G, A31U
DNA 1: CAATCTGAATTCCGGTCTCCC
DNA 2: TGGTGGCTACGACGGGATT
B12: GACACAC (DNA:RNA)
RNA: B1 RNA with C25G, C26A, A27C, U28A, C30A
DNA 1: CAATCTGAATTCCGGTCTCCC
DNA 2: TGGTGGCTACGACGGGATT
B13: AAUUCAG (DNA:RNA)
RNA: B1 RNA with C25A, C26A, A27U, C30A, C31G
DNA 1: CAATCTGAATTCCGGTCTCCC
DNA 2: TGGTGGCTACGACGGGATT
B14: UUAGUGG (DNA:RNA)
RNA: B1 RNA with C25U, C26U, U28G, C29U, C30G, C31G
DNA 1: CAATCTGAATTCCGGTCTCCC
DNA 2: TGGTGGCTACGACGGGATT
B15: UGGCUUG (DNA:RNA)
RNA: B3 RNA with G25U, A29U, A31G
DNA 1: CAATCTGAATTCCGGTCTCCC
DNA 2: TGGTGGCTACGACGGGATT
B16: UGAAGCC (DNA:RNA)
RNA: B1 RNA with C25U, C26G, U28A, C29G
DNA 1: CAATCTGAATTCCGGTCTCCC
DNA 2: TGGTGGCTACGACGGGATT
B17: CUUCCUG (DNA:RNA)
RNA: B1 RNA with C26U, A27U, U28C, C30U, C31G
DNA 1: CAATCTGAATTCCGGTCTCCC
DNA 2: TGGTGGCTACGACGGGATT
B18: CAUAGCU (DNA:RNA)
RNA: B1 RNA with C26A, A27U, U28A, C29G, C31U
DNA 1: CAATCTGAATTCCGGTCTCCC
DNA 2: TGGTGGCTACGACGGGATT
B19: GCGCCUG (DNA:RNA)
RNA: B3 RNA with G26C, A29C, A31G
DNA 1: CAATCTGAATTCCGGTCTCCC
DNA 2: TGGTGGCTACGACGGGATT
B20: UUACAUC (DNA:RNA)
RNA: B3 RNA with G25U, G26U, G27A, A31C
DNA 1: CAATCTGAATTCCGGTCTCCC
DNA 2: TGGTGGCTACGACGGGATT
B21: UAAUCCG (DNA:RNA)
RNA: B1 RNA with C25U, C26A, C31G
DNA 1: CAATCTGAATTCCGGTCTCCC
DNA 2: TGGTGGCTACGACGGGATT
B22: CGCAUGA (DNA:RNA)
RNA: B3 RNA with G25C, G27C, C28A, A29U, U30G
DNA 1: CAATCTGAATTCCGGTCTCCC
DNA 2: TGGTGGCTACGACGGGATT
B23: UUCGGAU (DNA:RNA)
RNA: GGGAGACCGGAAUUCAGAUUGUCCUUCGGAUUUAAAUCCCGUCGUAGCCACCA
DNA 1: CAATCTGAATTCCGGTCTCCC
DNA 2: TGGTGGCTACGACGGGATT
B24: UCCGAUA (DNA:RNA)
RNA: B3 RNA with G25U, G26C, G27C, C28G
DNA 1: CAATCTGAATTCCGGTCTCCC
DNA 2: TGGTGGCTACGACGGGATT
B25: UCAAUAA (DNA:RNA)
RNA: B1 RNA with C25U, U28A, C29U, C30A, C31A
DNA 1: CAATCTGAATTCCGGTCTCCC
DNA 2: TGGTGGCTACGACGGGATT
B26: CUGCCUG (DNA:RNA)
RNA: B3 RNA with G25C, G26U, A29C, A31G
DNA 1: CAATCTGAATTCCGGTCTCCC
DNA 2: TGGTGGCTACGACGGGATT
B27: AUGCUGC (DNA:RNA)
RNA: B3 RNA with G25A, G26U, A29U, U30G, A31C
DNA 1: CAATCTGAATTCCGGTCTCCC
DNA 2: TGGTGGCTACGACGGGATT
B28: GAUUAUG (DNA:RNA)
RNA: B3 RNA with G26A, G27U, C28U, A31G
DNA 1: CAATCTGAATTCCGGTCTCCC
DNA 2: TGGTGGCTACGACGGGATT
B29: UCGGUAA (DNA:RNA)
RNA: B23 RNA with U26C, C27G, G29U, U31A
DNA 1: CAATCTGAATTCCGGTCTCCC
DNA 2: TGGTGGCTACGACGGGATT
B30: CGACUAA (DNA:RNA)
RNA: B3 RNA with G25C, G27A, A29U, U30A
DNA 1: CAATCTGAATTCCGGTCTCCC
DNA 2: TGGTGGCTACGACGGGATT
B31: UGUCCUG (DNA:RNA)
RNA: B3 RNA with G25U, G27U, A29C, A31G
DNA 1: CAATCTGAATTCCGGTCTCCC
DNA 2: TGGTGGCTACGACGGGATT

Changes are numbered by the printed parent chain; changes in the protein carry UniProt numbers. This is one part of the list.

The target in the assay is T1, RBFOX1 RRM RbFoxmut (Fox-RRM*). The experiment in a line: EMSA; HiTS-Eq, 1 nM pool, 10 min; buffer printed only for the single-RNA assays: 10 mM Tris pH 7.5, 150 mM NaCl, 3.4 mM EDTA, 0.001% NP-40, 30 C. The following applies: tags: His6 N-terminal (pET28a); label: 5' 32P. In a few lines:
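Relative association constants, normalised to the cognate motif, were derived by comparing read counts of each RNA species with those of the control reaction. The RNA sequenced was the free fraction, separated by 8% native PAGE after a 10 min equilibration in 50 µL of 1 nM 5′-radiolabelled RNA (7 randomized nucleotides) with increasing concentrations of purified wild-type or mutant RbFox RRM.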
Turning to B1, the binding signal is 0.0432 KA relative to UGCAUGU.
The figure for B2 is 0.133 KA relative to UGCAUGU.
The same measure for B3: 0.134 KA relative to UGCAUGU.
The figure for B4 is 0.127 KA relative to UGCAUGU; for B5 it is 0.112 KA relative to UGCAUGU; for B6 it is 0.0763 KA relative to UGCAUGU.
As to B7, the binding signal was 0.108 KA relative to UGCAUGU.
The figure for B8 is 0.122 KA relative to UGCAUGU.
B9: the binding signal was 0.119 KA relative to UGCAUGU.
With B10, the binding signal was 0.0982 KA relative to UGCAUGU.
The figure for B11 is 0.118 KA relative to UGCAUGU; for B12 it is 0.0614 KA relative to UGCAUGU.
Take B13: the binding signal was 0.141 KA relative to UGCAUGU.
Consider B14, for which the binding signal is 0.0929 KA relative to UGCAUGU.
The same measure for B15: 0.92 KA relative to UGCAUGU; for B16: 0.0899 KA relative to UGCAUGU; for B17: 0.0773 KA relative to UGCAUGU.
The same measure for B18: 0.114 KA relative to UGCAUGU; for B19: 0.148 KA relative to UGCAUGU; for B20: 0.0518 KA relative to UGCAUGU.
The figure for B21 is 0.0523 KA relative to UGCAUGU; for B22 it is 0.871 KA relative to UGCAUGU.
For the molecule B23, the binding signal was 0.0575 KA relative to UGCAUGU.
The same measure for B24: 0.0878 KA relative to UGCAUGU; for B25: 0.0835 KA relative to UGCAUGU; for B26: 0.247 KA relative to UGCAUGU.
The same measure for B27: 0.126 KA relative to UGCAUGU; for B28: 0.146 KA relative to UGCAUGU; for B29: 0.133 KA relative to UGCAUGU.
Consider B30, for which the binding signal is 0.0856 KA relative to UGCAUGU.
Consider B31, for which the binding signal was 0.133 KA relative to UGCAUGU.
